From the supplement of paper PMC12067230
Single values of this set are uncertain.
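Also: [psi-pin-] Saccharomyces cerevisiae expressing SupN fusions, induced by 100 µM Cu2SO4, selected 7 d at 30 °C without adenine and uracil, scored by deep sequencing of output versus input.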

Assay: amyloid nucleation score relative to library mode (yeast Sup35 reporter selection) (log enrichment difference); higher = more amyloid nucleation; sequences are the first 22 residues of the Bri2 peptide extended by up to 12 random residues
Settings: random library (experiment): 1;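 active = nucleation score significantly above 0 at FDR 0.05; inactive = not significantly above 0 or absent from output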
Method: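 Random C-terminal extensions of the 22-aa Bri2 peptide by 12 NNK codons; premature stops give shorter extensions. Peptides were fused to the Sup35 nucleation domain in S. cerevisiae [psi-pin-] and selected on -ADE-URA plates for 7 d at 30 °C. The nucleation score is log(output/input), centred to the mode of each of 3 independent libraries (1 input, 3 technical output replicates), with duplicates merged. Sequences absent from the output ('random_non_nuc') were imputed with the library mode value, so they are given as censored (<). Nucleators are scores significantly >0 at FDR 0.05.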
Sequence EASNCFAIRHFENKFAVETLICCLLGNAKMSVAE has an amyloid nucleation score of 8.58. In the case of EASNCFAIRHFENKFAVETLICCLLLNQRVYGLS, the amyloid nucleation score is reported as “inactive”. With EASNCFAIRHFENKFAVETLICCLLRTMFCGTDG the amyloid nucleation score was “inactive”. With EASNCFAIRHFENKFAVETLICCLLSSWRWGFAV the amyloid nucleation score was “inactive”. With EASNCFAIRHFENKFAVETLICCLLWFVTTPHRN the amyloid nucleation score was “inactive”. For EASNCFAIRHFENKFAVETLICCLNSRYAVSLGH, the amyloid nucleation score was 2.89. EASNCFAIRHFENKFAVETLICCLPDCSNLWLCY showed an amyloid nucleation score of 4.88. In the case of EASNCFAIRHFENKFAVETLICCLPGRR, the amyloid nucleation score is reported as 7.82. EASNCFAIRHFENKFAVETLICCLRDDLQMVRWV gave an amyloid nucleation score of -0.627. In the case of EASNCFAIRHFENKFAVETLICCLRDESRELEGE, the amyloid nucleation score is reported as 3.82. Sequence EASNCFAIRHFENKFAVETLICCLRLT has an amyloid nucleation score of 4.49. For EASNCFAIRHFENKFAVETLICCLRRFCAWLHVK, the amyloid nucleation score was “inactive”. For EASNCFAIRHFENKFAVETLICCLRTAWVTVAHR, the amyloid nucleation score was 7.1. With EASNCFAIRHFENKFAVETLICCLRVTLRYDCCC the amyloid nucleation score was “inactive”. In the case of EASNCFAIRHFENKFAVETLICCLSFDDSCCWYA, the amyloid nucleation score is reported as 7.97. In the case of EASNCFAIRHFENKFAVETLICCLSFGPGRDIYV, the amyloid nucleation score is reported as 8.29. EASNCFAIRHFENKFAVETLICCLSGILAPVTGA showed an amyloid nucleation score of 6.24. In the case of EASNCFAIRHFENKFAVETLICCLSGNVWGVYYS, the amyloid nucleation score is reported as “inactive”. With EASNCFAIRHFENKFAVETLICCLSHHLGTSSCR the amyloid nucleation score was “inactive”. For EASNCFAIRHFENKFAVETLICCLSVNRASIPGW, the amyloid nucleation score was 6.1. For EASNCFAIRHFENKFAVETLICCLTMACPPRLAV, the amyloid nucleation score was “inactive”. With EASNCFAIRHFENKFAVETLICCLTYLRWSGALI the amyloid nucleation score was “inactive”. With EASNCFAIRHFENKFAVETLICCLVCEEALPGR the amyloid nucleation score was 6.06. With EASNCFAIRHFENKFAVETLICCLVGI the amyloid nucleation score was 4.43. In the case of EASNCFAIRHFENKFAVETLICCLVLYLWDDFTW, the amyloid nucleation score is reported as -0.163. In the case of EASNCFAIRHFENKFAVETLICCLVMRYLLSTDQ, the amyloid nucleation score is reported as “inactive”. EASNCFAIRHFENKFAVETLICCLVRTDSRWLKC showed an amyloid nucleation score of 2.41. In the case of EASNCFAIRHFENKFAVETLICCLYCTCVDKFGY, the amyloid nucleation score is reported as 5.44. With EASNCFAIRHFENKFAVETLICCLYDVFLSRKVC the amyloid nucleation score was 0.693. With EASNCFAIRHFENKFAVETLICCLYMSVPGFSLS the amyloid nucleation score was 3.55. Sequence EASNCFAIRHFENKFAVETLICCLYSVELCKFRA has an amyloid nucleation score of 5.95. EASNCFAIRHFENKFAVETLICCM gave an amyloid nucleation score of 0.986. In the case of EASNCFAIRHFENKFAVETLICCMCIRYRAIRVL, the amyloid nucleation score is reported as “inactive”. EASNCFAIRHFENKFAVETLICCMGGTL showed an amyloid nucleation score of 8.79. For EASNCFAIRHFENKFAVETLICCMGHMYE, the amyloid nucleation score was 9.27. EASNCFAIRHFENKFAVETLICCMGMTLHNRTST showed an amyloid nucleation score of 7.38. In the case of EASNCFAIRHFENKFAVETLICCMLHLSSLLDWR, the amyloid nucleation score is reported as “inactive”. Sequence EASNCFAIRHFENKFAVETLICCMLLGGAVRMPT has an amyloid nucleation score of 5.38. In the case of EASNCFAIRHFENKFAVETLICCMLRTARLRTAA, the amyloid nucleation score is reported as “inactive”. With EASNCFAIRHFENKFAVETLICCMLRWCDFTAER the amyloid nucleation score was 6.01. With EASNCFAIRHFENKFAVETLICCMMVTVSAWLSF the amyloid nucleation score was 0.498. In the case of EASNCFAIRHFENKFAVETLICCMPGPYLNNFRV, the amyloid nucleation score is reported as 3.25. EASNCFAIRHFENKFAVETLICCMQ showed an amyloid nucleation score of 7.73. Work on EASNCFAIRHFENKFAVETLICCMQVELRATRG yielded an amyloid nucleation score of 3.57. With EASNCFAIRHFENKFAVETLICCMVRARCARLSD the amyloid nucleation score was “inactive”. In the case of EASNCFAIRHFENKFAVETLICCN, the amyloid nucleation score is reported as 1.58.

Same assay, conditions: random library (experiment): 2
For EASNCFAIRHFENKFAVETLICCLLLLYSRRVLD, the amyloid nucleation score was “inactive”. With EASNCFAIRHFENKFAVETLICCLLPLWRRKVQS the amyloid nucleation score was 6.77. With EASNCFAIRHFENKFAVETLICCLLVVTHCDHPF the amyloid nucleation score was “inactive”. With EASNCFAIRHFENKFAVETLICCLLWIFDDLSNL the amyloid nucleation score was “inactive”. EASNCFAIRHFENKFAVETLICCLMQYAMSSRLR showed an amyloid nucleation score of 5.36. In the case of EASNCFAIRHFENKFAVETLICCLMSQGRSFSNG, the amyloid nucleation score is reported as 8.76. EASNCFAIRHFENKFAVETLICCLNFR gave an amyloid nucleation score of 7.75. Sequence EASNCFAIRHFENKFAVETLICCLNNFVTQSHFA has an amyloid nucleation score of 8.58. Sequence EASNCFAIRHFENKFAVETLICCLPVHYDPSIFE has an amyloid nucleation score of 7.92. For EASNCFAIRHFENKFAVETLICCLQCSIGVPMLS, the amyloid nucleation score was 2.9. EASNCFAIRHFENKFAVETLICCLQGNNGALVDK gave an amyloid nucleation score of 5.83. With EASNCFAIRHFENKFAVETLICCLQGRFNRNCVR the amyloid nucleation score was “inactive”. For EASNCFAIRHFENKFAVETLICCLRMSLVVCQSR, the amyloid nucleation score was “inactive”. With EASNCFAIRHFENKFAVETLICCLRRMWYRSRGC the amyloid nucleation score was “inactive”. For EASNCFAIRHFENKFAVETLICCLRVCYDNARVV, the amyloid nucleation score was “inactive”. For EASNCFAIRHFENKFAVETLICCLSKERVVVIVG, the amyloid nucleation score was “inactive”. Work on EASNCFAIRHFENKFAVETLICCLTFLKKPWFIK yielded an amyloid nucleation score of -0.788. With EASNCFAIRHFENKFAVETLICCLTIIVGMYPRS the amyloid nucleation score was “inactive”. Sequence EASNCFAIRHFENKFAVETLICCLTL has an amyloid nucleation score of 7.73. Sequence EASNCFAIRHFENKFAVETLICCLVENRRNWCIA has an amyloid nucleation score of 5.59. For EASNCFAIRHFENKFAVETLICCLVGQRSRSLRC, the amyloid nucleation score was “inactive”. For EASNCFAIRHFENKFAVETLICCLVNRYWVVFRR, the amyloid nucleation score was “inactive”. For EASNCFAIRHFENKFAVETLICCLVSIIGWSSVL, the amyloid nucleation score was “inactive”. EASNCFAIRHFENKFAVETLICCLVTYSCVYE showed an amyloid nucleation score of -0.0198. EASNCFAIRHFENKFAVETLICCLWIGCLSSMRR showed an amyloid nucleation score of 3.79. EASNCFAIRHFENKFAVETLICCMDGSWKREKRL showed an amyloid nucleation score of 4.21. In the case of EASNCFAIRHFENKFAVETLICCMGNSYSLTIGV, the amyloid nucleation score is reported as 6.82. For EASNCFAIRHFENKFAVETLICCMILQHVALCAR, the amyloid nucleation score was “inactive”. EASNCFAIRHFENKFAVETLICCMKRPEI gave an amyloid nucleation score of 0.683. EASNCFAIRHFENKFAVETLICCMNPMSRLDCSR showed an amyloid nucleation score of 6.11. In the case of EASNCFAIRHFENKFAVETLICCMQVRWDFTNIG, the amyloid nucleation score is reported as “inactive”. In the case of EASNCFAIRHFENKFAVETLICCMR, the amyloid nucleation score is reported as 7.01. With EASNCFAIRHFENKFAVETLICCMRLVSRNAR the amyloid nucleation score was 0.562. Work on EASNCFAIRHFENKFAVETLICCMRRIVV yielded an amyloid nucleation score of 0.335. EASNCFAIRHFENKFAVETLICCMSF gave an amyloid nucleation score of 8.08. With EASNCFAIRHFENKFAVETLICCMTL the amyloid nucleation score was 7.34. EASNCFAIRHFENKFAVETLICCMTPHMTTEAWA showed an amyloid nucleation score of 3.71. Work on EASNCFAIRHFENKFAVETLICCMVCDFWFDSYG yielded an amyloid nucleation score of 5.84. EASNCFAIRHFENKFAVETLICCMWDKSHLFRVF showed an amyloid nucleation score of 3.99. Sequence EASNCFAIRHFENKFAVETLICCNAMSPQAYEGW has an amyloid nucleation score of 8.72. In the case of EASNCFAIRHFENKFAVETLICCNCISISWFYDA, the amyloid nucleation score is reported as 8.3.

Same assay, conditions: random library (experiment): 3
In the case of EASNCFAIRHFENKFAVETLICCLLHTKKEVWVL, the amyloid nucleation score is reported as “inactive”. Work on EASNCFAIRHFENKFAVETLICCLLLSIRNSRDL yielded an amyloid nucleation score of 5.07. For EASNCFAIRHFENKFAVETLICCLNRDSWGTPLR, the amyloid nucleation score was 6.29. EASNCFAIRHFENKFAVETLICCLPYWMRKCLER gave an amyloid nucleation score of 6.47. For EASNCFAIRHFENKFAVETLICCLQE, the amyloid nucleation score was 6.16. With EASNCFAIRHFENKFAVETLICCLRDNHAIGSAW the amyloid nucleation score was 7.06. With EASNCFAIRHFENKFAVETLICCLREVIYLTKCL the amyloid nucleation score was “inactive”. For EASNCFAIRHFENKFAVETLICCLRFVSTKMRRE, the amyloid nucleation score was “inactive”. For EASNCFAIRHFENKFAVETLICCLRTTSKRCWRR, the amyloid nucleation score was “inactive”. With EASNCFAIRHFENKFAVETLICCLRVGRYRICLR the amyloid nucleation score was “inactive”. EASNCFAIRHFENKFAVETLICCLVDEIGVYV gave an amyloid nucleation score of 5.06. EASNCFAIRHFENKFAVETLICCLVTSERDLPIA showed an amyloid nucleation score of 7.98. Work on EASNCFAIRHFENKFAVETLICCLWVGSEAATSW yielded an amyloid nucleation score of 8.14. In the case of EASNCFAIRHFENKFAVETLICCLYCKYLKWCFL, the amyloid nucleation score is reported as “inactive”. Sequence EASNCFAIRHFENKFAVETLICCLYFGRLEVVGV has an amyloid nucleation score of 7.25. With EASNCFAIRHFENKFAVETLICCLYRDMYVRNFR the amyloid nucleation score was “inactive”. EASNCFAIRHFENKFAVETLICCMCPMDNKPGG gave an amyloid nucleation score of 8.92. For EASNCFAIRHFENKFAVETLICCMDGC, the amyloid nucleation score was “inactive”. In the case of EASNCFAIRHFENKFAVETLICCMGFTRCLCL, the amyloid nucleation score is reported as 4.72. EASNCFAIRHFENKFAVETLICCMGKIQAWSWGY gave an amyloid nucleation score of 4.14. EASNCFAIRHFENKFAVETLICCMHGFPYGVMSL gave an amyloid nucleation score of 6.23. In the case of EASNCFAIRHFENKFAVETLICCMHGRRYCDVAR, the amyloid nucleation score is reported as “inactive”. EASNCFAIRHFENKFAVETLICCML gave an amyloid nucleation score of 8.55. With EASNCFAIRHFENKFAVETLICCMMVCSPTLVL the amyloid nucleation score was 4.05. For EASNCFAIRHFENKFAVETLICCMNCEQFKSGVC, the amyloid nucleation score was 6.66. For EASNCFAIRHFENKFAVETLICCMSMCKDSVRVG, the amyloid nucleation score was “inactive”. Work on EASNCFAIRHFENKFAVETLICCMSVVSPLLCAK yielded an amyloid nucleation score of 0.721. For EASNCFAIRHFENKFAVETLICCMVACLSDALGV, the amyloid nucleation score was 4.14. For EASNCFAIRHFENKFAVETLICCMVYFSQVFR, the amyloid nucleation score was “inactive”. With EASNCFAIRHFENKFAVETLICCMWFHDNQALPS the amyloid nucleation score was 9.01.
